From PubChem BioAssay AID504832 (National Center for Advancing Translational Sciences (NCATS), 2011)
The campaign covered roughly 310,000 compounds. About 18,000 (5.8%) were called active. This list was built around the results that the source calls inconclusive (neither active nor inactive); the mix of calls is not that of the screen. Calls follow the shape of the dose curve; as a rule, active = well fitted inhibition curve with a large enough effect; inconclusive = small, poorly fitted or top-dose-only effect, or another doubt; inactive = no such curve, though single readings can be large or run the other way. Potencies of inconclusive entries are left out as doubtful fits.

assay: Primary qHTS for delayed death inhibitors of the malarial parasite plastid, 48 hour incubation; settings: P. falciparum luciferase growth in erythrocytes; series mostly up to 28.7 µM
How it was run: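 In quantitative HTS format, infected erythrocytes bearing luciferase-reporter parasites were treated for a single generation at 37 C. Luminescence after adding detection reagent served as the growth measure.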
% is scaled to controls: 0 for no effect and ±100 for the full control effect; potency is read from the fitted curve at half-maximal effect; tags tell the direction and shape of the fitted curve.

Q: Which Potency does the source give for `OCCN1CCN(c2ncnc3c2c(-c2ccccc2)cn3-c2ccc(F)cc2)CC1` here?
A: Its Potency is inconclusive [inhibitor, single point].

Q: For `Cc1cc(-c2nnc(SCC(=O)Nc3ccccc3C(F)(F)F)o2)c(C)n1-c1ccccc1`, which Potency is on record?
A: Its Potency is “inactive”.

Q: With `COC(=O)c1sc(N)c(C(=O)OC)c1CSc1nc2sc3c(c2c(=O)n1C)CCC3` as the compound, how does the Potency read?
A: Its Potency is inconclusive [inhibitor, single point].

Q: With `CCC1CCCCN1C(=O)c1ccc2c(c1)C(=O)N(c1ccc(C)cc1)C2=O` (stereo not drawn) as the compound, how does the Potency read?
A: The Potency was “inactive”.

Q: Which Potency does the source give for `NC1=NC(c2cn[nH]c2-c2ccc(F)cc2)n2c(nc3ccccc32)N1` (stereo not drawn) here?
A: Its Potency is inconclusive [inhibitor, partial curve, poor fit].

Q: Which Potency does the source give for `NNC(=O)CCc1c[nH]c2ccccc12` here?
A: The Potency was “inactive”.

Q: With `COc1ccc(NC(=O)CSc2nc3[nH]ncc3c(=O)n2-c2ccccc2C)cc1OC` as the compound, how does the Potency read?
A: The Potency was inconclusive [inhibitor, single point].

Q: For `COc1ccc(N2C(=O)CC(NNC(=O)c3ccc(Br)s3)C2=O)cc1` (stereo not drawn), which Potency is on record?
A: Its Potency is “inactive”.

Q: With `O=C(/C=C/c1ccccc1)NCCSc1ccc(Cl)cc1` as the compound, how does the Potency read?
A: The Potency was “inactive”.

Q: Which Potency does the source give for `Cc1cc(C)cc(NC(=O)N2CCc3ccccc3C2)c1` here?
A: The Potency was “inactive”.

Q: For `O=C(CCCCCNC(=O)c1ccccc1)N/N=C/c1ccco1`, which Potency is on record?
A: Its Potency is “inactive”.

Q: Which Potency does the source give for `COc1ccc(/C(C)=N/Nc2nc(C)c(C(C)=O)s2)cc1` here?
A: Its Potency is inconclusive [inhibitor, partial curve, poor fit].

Q: Which Potency does the source give for `CC(C)n1cc(/C=C2/NC(=O)N(c3cccc(Cl)c3)C2=O)c2ccccc21` here?
A: The Potency was active: 8.28 µM.

Q: With `CC(=O)Nc1ccc(Nc2cc(C)nc(Nc3ccc(NC(C)=O)cc3)n2)cc1` as the compound, how does the Potency read?
A: The Potency was active: 1.65 µM.

Q: Which Potency does the source give for `CS(=O)(=O)Nc1ccc(C(=O)NC2CCCCC2)cc1` here?
A: The Potency was “inactive”.

Q: Which Potency does the source give for `CC(=O)c1ccc(NC(=O)Nc2ccc([N+](=O)[O-])cc2)cc1` here?
A: Its Potency is “inactive”.

Q: With `COc1ccccc1-c1nc(C#N)c(N2CCN(C(=O)c3ccco3)CC2)o1` as the compound, how does the Potency read?
A: Its Potency is “inactive”.

Q: For `O=S(=O)(NC1CCCCCCC1)c1cccs1`, which Potency is on record?
A: The Potency was inconclusive [inhibitor, single point].

Q: Which Potency does the source give for `CCOc1ccc(N2CC(C(=O)OCC(=O)c3ccc(OC)cc3)CC2=O)cc1` (stereo not drawn) here?
A: Its Potency is inconclusive [inhibitor, full curve, poor fit].

Q: With `COC(=O)c1ccc(N2CCN(CC(=O)c3ccc(-c4ccccc4)cc3)CC2)c([N+](=O)[O-])c1` as the compound, how does the Potency read?
A: The Potency was active: 11.7 µM.

Q: For `c1csc(-c2noc(CN3CCc4sccc4C3)n2)c1`, which Potency is on record?
A: The Potency was “inactive”.

Q: Which Potency does the source give for `O=C(Nc1c2c(nn1-c1ccc(F)cc1)CSC2)c1ccc(S(=O)(=O)N2CCOCC2)cc1` here?
A: The Potency was inconclusive [inhibitor, partial curve].

Q: For `NC(=O)[C@@H]1CC2(CC(c3cccc(NC(=O)CC(c4ccccc4)c4ccccc4)c3)=NO2)CN1C(=O)COc1ccc(Cl)cc1` (stereo partly drawn), which Potency is on record?
A: The Potency was inconclusive [inhibitor, single point].

Q: Which Potency does the source give for `Cc1csc(=Nc2cccnc2)n1CC1CCCCC1` here?
A: The Potency was inconclusive [inhibitor, single point].

Q: For `O=C(Nc1ccc(Oc2ccccc2)nc1)C1CCCCN1Cc1ccc(O)cc1` (stereo not drawn), which Potency is on record?
A: The Potency was inconclusive [inhibitor, partial curve, poor fit].

Q: With `CCN(Cc1ccccc1)C(=S)Nc1cc(C(=O)OC)ccc1C(=O)OC` as the compound, how does the Potency read?
A: Its Potency is inconclusive [inhibitor, single point].

Q: Which Potency does the source give for `CN(C)c1nc(N(C)C)nc(N(C#N)Cc2ccc(Cl)cc2)n1` here?
A: The Potency was inconclusive [inhibitor, partial curve, poor fit].

Q: Which Potency does the source give for `CCc1cn(C2CC(O)C(CO)O2)c(=O)[nH]c1=O` (stereo not drawn) here?
A: The Potency was “inactive”.

Q: Which Potency does the source give for `Cc1ccc(S(=O)(=O)N2c3ccccc3-c3c(ssc3=S)C2(C)C)cc1` here?
A: The Potency was inconclusive [inhibitor, partial curve, poor fit].

Q: With `Nc1ccc2c(c1)Nc1ccccc1CC2` as the compound, how does the Potency read?
A: Its Potency is “inactive”.

Q: Which Potency does the source give for `CC(C)c1ccc(CNC(=O)CCc2ccccc2)cc1` here?
A: Its Potency is inconclusive [inhibitor, partial curve, poor fit].

Q: For `NS(=O)(=O)c1cc2c(cc1Cl)N[C@@H](C(Cl)Cl)NS2(=O)=O`, which Potency is on record?
A: The Potency was “inactive”.

Q: For `CCOc1cc(CN2CCN(CCc3ccccc3)C(CCO)C2)ccc1OC` (stereo not drawn), which Potency is on record?
A: The Potency was inconclusive [inhibitor, partial curve].

Q: Which Potency does the source give for `Cc1cc(C(=O)Nc2c(F)cc(F)cc2Br)cs1` here?
A: The Potency was “inactive”.

Q: Which Potency does the source give for `CC1CN(S(=O)(=O)c2cccc(C(=O)Nc3cc(Cl)ccc3N3CCOCC3)c2)CC(C)O1` (stereo not drawn) here?
A: Its Potency is active: 9.28 µM.

Q: With `CCC(=O)N1CCN(c2nc3ccc(Br)cc3s2)CC1` as the compound, how does the Potency read?
A: Its Potency is “inactive”.

Q: Which Potency does the source give for `CCCc1cc(=O)[nH]c(SCC(=O)Nc2cccc(S(=O)(=O)N3CCOCC3)c2)n1` here?
A: The Potency was inconclusive [inhibitor, single point].

Q: With `Cc1ccc(OCC(=O)Nc2ccc(S(=O)(=O)N3CCOCC3)cc2)c(Br)c1` as the compound, how does the Potency read?
A: Its Potency is active: 10.4 µM.

Q: For `COc1ccc(C2CC(c3ccccc3OC(C)=O)=NN2C(C)=O)cc1` (stereo not drawn), which Potency is on record?
A: Its Potency is inconclusive [inhibitor, single point].

Q: Which Potency does the source give for `CC1=Nc2cc(C(=O)NCCCOC(C)C)ccc2Sc2ccc(C)cc21` here?
A: Its Potency is active: 7.38 µM.

Q: For `O=C(c1ccco1)N1c2ccccc2Sc2ccccc21`, which Potency is on record?
A: The Potency was inconclusive [inhibitor, partial curve, poor fit].

Q: Which Potency does the source give for `S=C(Nc1ccc(Cl)cc1)Nc1cccc2cnccc12` here?
A: Its Potency is inconclusive [inhibitor, single point].

Q: With `Cc1ccc(N2C(=O)CN(Cc3ccccc3)C2=S)cc1C` as the compound, how does the Potency read?
A: Its Potency is inconclusive [inhibitor, single point].

Q: With `O=C(NCC1CCN(C(=O)c2cccc([N+](=O)[O-])c2)CC1)c1cccc([N+](=O)[O-])c1` as the compound, how does the Potency read?
A: The Potency was “inactive”.

Q: With `COc1cc(/C=C/C(=O)O)cc(S(=O)(=O)Nc2ccccc2Oc2ccccc2)c1OC` as the compound, how does the Potency read?
A: Its Potency is inconclusive [inhibitor, single point].

Q: Which Potency does the source give for `O=Cc1[nH]c2ccccc2c1N(C(=O)CCl)c1ccccc1` here?
A: Its Potency is “inactive”.

Q: Which Potency does the source give for `CCN(CC(=O)Nc1cc(Cl)ccc1C)C(=O)Cn1c(=O)cnc2ccccc21` here?
A: The Potency was inconclusive [inhibitor, single point].

Q: Which Potency does the source give for `COc1ccc(N2CCN(C(C)C(=O)N3CCCC3)CC2)cc1` (stereo not drawn) here?
A: Its Potency is “inactive”.

Q: For `CC(Sc1nc(N2CCOCC2)c2c(c1C#N)CC(C)(C)OC2)C(=O)O` (stereo not drawn), which activity change, negative = inhibition is on record?
A: The activity change, negative = inhibition was inactive: -16.9% [at 0.00184 µM].

Q: With `CC(=O)O[C@@]12CO[C@@H]1C[C@H](O)[C@@]1(C)C(=O)[C@H](O)C3=C(C)[C@@H](OC(=O)C(O)[C@@H](NC(=O)OC(C)(C)C)c4ccccc4)C[C@@](O)([C@@H](OC(=O)c4ccccc4)[C@H]21)C3(C)C` (stereo partly drawn) as the compound, how does the Potency read?
A: The Potency was active: 0.0135 µM.

Q: For `O=C(Nc1ccc(C(=O)NCCCN2CCN(c3ccc(F)cc3)CC2)cc1)C1=CSCCO1`, which Potency is on record?
A: Its Potency is inconclusive [inhibitor, single point].

Q: For `CCOc1cc2c(cc1OCC)-n1cccc1C(c1ccc(C(C)C)cc1)NC2` (stereo not drawn), which Potency is on record?
A: The Potency was active: 8.28 µM.

Q: Which Potency does the source give for `COc1cc(CN2CCN(C(O)(c3ccccc3)c3ccccc3)CC2)cc(OC)c1OC` here?
A: Its Potency is inconclusive [inhibitor, partial curve, poor fit].

Q: With `Cc1ccc2nc(-c3cccnc3SCC(=O)N3c4ccccc4CC3C)[nH]c2c1` (stereo not drawn) as the compound, how does the Potency read?
A: The Potency was inconclusive [inhibitor, single point].

Q: With `CC(=O)c1c(C(C)=O)c(C)n(Cc2ccc3c(c2)OCO3)c1C` as the compound, how does the Potency read?
A: Its Potency is inconclusive [inhibitor, single point].

Q: Which Potency does the source give for `O=S1(=O)C=C(SCc2ccc(Cl)c(Cl)c2)Nc2ccccc21` here?
A: Its Potency is inconclusive [inhibitor, partial curve].

Q: For `O=C(N/N=C/c1c(-c2ccccc2)[nH]c2ccccc12)c1cccnc1`, which Potency is on record?
A: Its Potency is inconclusive [inhibitor, single point].

Q: With `CCN(CC)c1ccc(NC(=O)c2ccco2)cc1` as the compound, how does the Potency read?
A: Its Potency is “inactive”.

Q: Which Potency does the source give for `COc1ccc(S(=O)(=O)N2CCN(CC(=O)Nc3cccc(OC)c3)CC2)cc1` here?
A: Its Potency is “inactive”.

Q: Which Potency does the source give for `Cn1c(NC(=O)C[n+]2cc(-c3ccc(Cl)cc3)n3c2CCC3)cc(=O)n(C)c1=O` here?
A: The Potency was active: 4.15 µM.

Q: Which Potency does the source give for `Cc1ccc(C(C)C)c(OCCN2CCc3ccccc3C2)c1` here?
A: Its Potency is inconclusive [inhibitor, single point].

Q: For `COc1ccc(C(=O)O/N=C(\N)Cc2cccs2)cc1OC`, which Potency is on record?
A: The Potency was inconclusive [inhibitor, partial curve, poor fit].

Q: Which Potency does the source give for `C/C(=N\O)C1CC(CC(=O)O)C1(C)C` (stereo not drawn) here?
A: Its Potency is “inactive”.

Q: For `CC(=O)Oc1ccccc1-c1nc(/C=C/c2ccccc2)no1`, which Potency is on record?
A: The Potency was “inactive”.

Q: For `Cc1ccc(S(=O)(=O)NN=C2C3CC4CC(C3)CC2C4)cc1`, which Potency is on record?
A: The Potency was “inactive”.

Q: For `COC(=O)/C=C/c1ccccc1S(=O)(=O)N(Cc1ccccc1)Cc1ccco1`, which Potency is on record?
A: The Potency was inconclusive [inhibitor, single point].

Q: For `CCN1C(=O)/C(=C/c2ccc3c(c2)CCN3CCCCl)C(=O)NC1=S`, which Potency is on record?
A: The Potency was “inactive”.

Q: With `COc1ccc(CCNC(=O)c2cnc3n(c2=O)CCS3)cc1OC` as the compound, how does the Potency read?
A: Its Potency is “inactive”.

Q: With `COc1ccc(C(=O)NNC(=O)CCCCC(=O)NNC(=O)c2ccc(OC)cc2)cc1` as the compound, how does the Potency read?
A: The Potency was “inactive”.

Q: Which Potency does the source give for `O=C(c1cccc(Cl)c1)N1CCC(=O)N(C(COCc2ccccc2)Cc2ccccc2)CC1` (stereo not drawn) here?
A: Its Potency is inconclusive [inhibitor, single point].

Q: With `CC(C)(C)c1ccc(C(=O)O/N=C(\N)c2ccccn2)cc1` as the compound, how does the Potency read?
A: Its Potency is inconclusive [inhibitor, partial curve, poor fit].

Q: For `CC1CCCCN1C(=O)CSc1nnc(-c2ccco2)n1C` (stereo not drawn), which Potency is on record?
A: The Potency was “inactive”.

Q: With `CCc1ccc(-c2cc3c(=O)n(CC(=O)NCCN4CCCCC4C)nc(C)n3n2)cc1` (stereo not drawn) as the compound, how does the Potency read?
A: The Potency was inconclusive [inhibitor, partial curve, poor fit].
